# Assay results from article PMC12136788.
# The list shows a part of the results.
# B1: chr4:148554787:148554788:-_ENSMUSG00000063077_ENSMUST00000060537|mus_hu|motif|central (ssRNA)
# RNA: GGGAGUUCUACAGUCCGACGAUCUCUCAGCACAAGAAAAAAGAAAAGAGUACAGAGCAAUGGAGAUGGGGAACGGGAGAGCGGGAAAAGUGCUGGACAAGGAGGGAGAAGUAGUUAAGCCACAGGAUUACAUACAAGAGUCACCAACAGAGGAUUGAGCAUCA
# B2: 27475716_27475836_1197_3pUTR_ENSMUSG00000021877_ENSMUST00000022429|mouse|control|control (ssRNA)
# RNA: GGGAGUUCUACAGUCCGACGAUCAUGAUAAAGGUCUCAGUAAAGUAUCAAGGGAAUAACUUUAAAACAUUAUUGUUUUGGGCUCAAAAACCACUCAGAUCUGUCUAAAGGUGUCAGGAUAGCUCUGUAUCCAGGCAUUUAGGUCAACAGAGGAUUGAGCAUCA
# B3: chr11:47074021:47074022:+_ENSG00000149179_ENST00000278460|hu_hu|motif|central (ssRNA)
# RNA: GGGAGUUCUACAGUCCGACGAUCGCCAUUUUUGCCCACAGUUCGGAAGCAUCUCCAGAAGGCCCGUAAAAAUGAUACCCGGUUGUGGGGGGUGGCUUGGACGAAGCUGAAUUCUCGAAAGAGAAUGUGUGUUCCCUGGCAUACCAACAGAGGAUUGAGCAUCA
# B4: chr4:95202638:95202639:+_ENSG00000163104_ENST00000354268|hu_hu|FALSE|FALSE (ssRNA)
# RNA: GGGAGUUCUACAGUCCGACGAUCUAAUAGAACCUCUAAGAUAUCCAGCAUCAUGGUAAAUUGGCUAAAUAACACAACUCUAUCACCCUUCUGUUUCAAUUCAGACAAGAUGCAUCCUAAAACUCGAAAUUUUCCAGAAUCUAACAACAGAGGAUUGAGCAUCA
# B5: chr12:493273:493274:-_ENSG00000073614_ENST00000399788|hu_mus|hu_hu_hu_mus_False|38_88 (ssRNA)
# RNA: GGGAGUUCUACAGUCCGACGAUCUUUUCUCUCCACCACAGGGAUCUUCAGAGUAGAUCCUUGAAGUUCCCAAAAUUUUGCCAGUUGAUCCAAGAAGUCCAAUCUCACUCUAGUCAUUGCCUCAAGUUCAUUCAGGCGCUGGACCAACAGAGGAUUGAGCAUCA
# B6: chr6:15520614:15520615:+_ENSG00000008083_ENST00000341776|hu_hu|motif|central (ssRNA)
# RNA: GGGAGUUCUACAGUCCGACGAUCUUUUCUAAGUACAAAAAAAAGUUCAACAGUUUAAUGCUAAAACAAAAUUAGUUCUCGGAAACCAGAAGAAAAUCUUCUUUAGAGCUAGUGCAAAGACAGCUUGAAUCCUACAGCAAGUACCAACAGAGGAUUGAGCAUCA
# B7: chr12:76570751:76570752:-_ENSMUSG00000021051_ENSMUST00000021447|perfect_dup|motif|central (ssRNA)
# RNA: GGGAGUUCUACAGUCCGACGAUCUGUUUCAUAAACAAACCUUAGAAAAAUAUUGUUAAUCUGUUUUCGGAUAAAUGCUCGGAGACCAAGAAACUUGCCAUAAAUUCUGUGUAAGACUGUUUUUAAGUAGUCCCGUUCCCGAGGCAACAGAGGAUUGAGCAUCA
# B8: chr9:58050066:58050067:-_ENSMUSG00000051243_ENSMUST00000163897|mus_mus|FALSE|FALSE (ssRNA)
# RNA: GGGAGUUCUACAGUCCGACGAUCGGGACCUGCUGAACUGCGCUGCCUGGCUCUCCCGGACCCUUUUCCUCCUGCCGCCUGCUAGCCUCCCCCUCCCCGAAGCUUCGUUCAACACGAUGCAUAAUUGAUAGUGUUAGCAGAACGCAACAGAGGAUUGAGCAUCA
# B9: chr14:57521723:57521724:+_ENSMUSG00000021945_ENSMUST00000022511|mus_hu|FALSE|FALSE (ssRNA)
# RNA: GGGAGUUCUACAGUCCGACGAUCUACAGGUUCGAUAAAAACAACAUCAUCAUCAUCUUCCACUGACGAGUUCUGAAACUUAUUAGAUCUAGACACUAAAGGAUUAGCUGGACCACUAAAUGAGUUUCCUACAUUCGUGAGACUCAACAGAGGAUUGAGCAUCA
# B10: chr17:35253193:35253194:-_ENSMUSG00000024387_ENSMUST00000025246|mus_hu|FALSE|FALSE (ssRNA)
# RNA: GGGAGUUCUACAGUCCGACGAUCCCUUUUCUUCUACUUUAUUUCAUAUUCCCACCACGAUAACGACUCCUUUAAUUUAAACUAAAAACCAUACAGGGUUCCUGAAAGGGUGGCAAAAAAGAAAGGAAAAGUCAAAGACUGCAGCAACAGAGGAUUGAGCAUCA
# B11: chr2:9570881:9570882:+_ENSG00000119203_ENST00000238112|hu_mus|hu_hu_hu_mus_False|58_108 (ssRNA)
# RNA: GGGAGUUCUACAGUCCGACGAUCACUUGUCUUCUGUAGGAACCAGGGCAGGGCUCCACAGUGAUCCAAAUGGAAAUGACUAAUUAACAGAAGGUCGAUCUCAGCUGGGUCGAUAAGGUCAAUGUAAGGAAGGGCAUCCAUUCCCAACAGAGGAUUGAGCAUCA
# B12: chr12:39763582:39763583:-_ENSG00000139116_ENST00000544797|hu_mus|hu_hu_hu_mus_False|1_88 (ssRNA)
# RNA: GGGAGUUCUACAGUCCGACGAUCCUCUAGGAACUGGGCAUUCACUUUAAAAUCUGGAGGGGGCAGCCCGUUUUUAAUCGCUGAGGUCUUUUUCUCAUCAAUACUCUUGAACAGGUGUCUAACAGCACGAGAGAUGAUACCCAGCAACAGAGGAUUGAGCAUCA
# B13: 5780615_5780735_1026_CDS_ENSG00000011275_ENST00000425013|human|control|control (ssRNA)
# RNA: GGGAGUUCUACAGUCCGACGAUCUAGUAGUUCAACGAGCUCUUGAUCUACCUCUGCAGCUUCUUGCCCCCAAAUGUUUUCCAAAUUGGGCUCUUGAGAUUCUUGCAUUGGAAAGGCUGGACCUGGCUCUUCAUCAUCACUUGCCAACAGAGGAUUGAGCAUCA
# B14: chr8:117878989:117878990:-_ENSG00000164754_ENST00000297338|hu_hu|hu_hu_hu_mus_True|8_18 (ssRNA)
# RNA: GGGAGUUCUACAGUCCGACGAUCCCAGAGGCCCUCGUUUACUGAGGACAAAAUGUGCGUAGAACAUUUUUCUUAUUUGCUAUGAAAUAAGAAGAAACCUGGAUCUCGGCGGGGAGCUUGGGCGGGCUGGGUGGCCCGGGAGGGCAACAGAGGAUUGAGCAUCA
# Biological target: T1, UNK ZnF1-3 (human, UniProt Q9C0B0 31-174)
# T1 sequence: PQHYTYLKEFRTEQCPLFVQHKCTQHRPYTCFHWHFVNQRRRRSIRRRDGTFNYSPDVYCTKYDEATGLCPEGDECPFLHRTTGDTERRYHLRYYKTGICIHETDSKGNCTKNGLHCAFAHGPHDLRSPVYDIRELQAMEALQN
# Experiment: nsRBNS (natural sequence RNA bind-n-seq); RBNS binding buffer (assumed for nsRBNS): 25 mM Tris pH 7.5, 150 mM KCl, 3 mM MgCl2, 0.01% Triton X-100, 500 ug/ml BSA, 20 U/ml SUPERase-In, 4 C; UNK is unkempt and MSI1 is Musashi-1; names of the RNAs are library labels; protein concentration not given here; high values mean tight binding
row,Binder,binding signal
1,B1,2.83 enrichment R
2,B2,0.77 enrichment R
3,B3,1.86 enrichment R
4,B4,1.24 enrichment R
5,B5,0.988 enrichment R
6,B6,0.986 enrichment R
7,B7,1.29 enrichment R
8,B8,1.19 enrichment R
9,B9,0.739 enrichment R
10,B10,1.65 enrichment R
11,B11,1.26 enrichment R
12,B12,1.28 enrichment R
13,B13,0.835 enrichment R
14,B14,1.12 enrichment R
